Test results reported in article PMC6919601, “Identification of Plasmodium dipeptidyl aminopeptidase allosteric inhibitors by high throughput screening” (PLoS ONE, 2019).
Hit rate of the full screen: of about 110,000 compounds, about 230 (0.21%) showed an effect of 50% or more. The list shows a part of the results.

Biological target: DPAP1 (Plasmodium falciparum, UniProt Q8IIJ9)
Assay: primary screen, percent inhibition; read by cleavage of a fluorogenic dipeptide substrate; higher = more effect of the substance
Parameters: species or system P. falciparum D10 trophozoite lysates; single well
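Also: 30 min substrate incubation versus DMSO and 10 µM JCP410 controls.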

Chain of DPAP1 (Q8IIJ9 whole entry, looked up): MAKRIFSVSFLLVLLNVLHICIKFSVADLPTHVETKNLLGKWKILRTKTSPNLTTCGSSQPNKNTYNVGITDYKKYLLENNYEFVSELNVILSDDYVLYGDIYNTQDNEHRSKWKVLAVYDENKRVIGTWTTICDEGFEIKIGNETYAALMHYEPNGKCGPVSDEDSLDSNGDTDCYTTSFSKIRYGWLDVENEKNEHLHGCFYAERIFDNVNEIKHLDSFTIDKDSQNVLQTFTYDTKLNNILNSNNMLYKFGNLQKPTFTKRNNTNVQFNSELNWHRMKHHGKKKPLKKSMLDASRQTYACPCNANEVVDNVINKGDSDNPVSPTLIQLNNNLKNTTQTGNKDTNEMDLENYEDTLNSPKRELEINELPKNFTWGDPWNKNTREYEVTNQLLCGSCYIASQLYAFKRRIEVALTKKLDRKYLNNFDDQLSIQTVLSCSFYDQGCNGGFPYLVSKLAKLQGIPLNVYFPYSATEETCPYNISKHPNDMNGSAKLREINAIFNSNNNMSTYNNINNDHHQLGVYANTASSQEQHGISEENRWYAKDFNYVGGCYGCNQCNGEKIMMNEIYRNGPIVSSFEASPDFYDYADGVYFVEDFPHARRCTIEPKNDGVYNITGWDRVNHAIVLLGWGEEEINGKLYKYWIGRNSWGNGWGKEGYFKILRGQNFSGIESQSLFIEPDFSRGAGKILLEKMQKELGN

SMILES	% Inhibition @ 10 uM
O=C(c1ccc(Br)o1)N1CCN(c2ccc([N+](=O)[O-])cc2)CC1	5.12%
CCOCCc1nnc(NC(=O)C(=O)c2cc(C)n(-c3ccc(C)cc3)c2C)s1	-2.84%
CCOC(=O)c1sc2nc(C)cc(C)c2c1NC(=O)c1ccco1	4.19%
Cc1ccn2c(NC(=O)c3ccc(F)cc3)c(-c3cccs3)nc2c1	4.77%
CCOC(=O)C1=C(N)Oc2c(c(=O)oc3ccccc23)C1c1cccc([N+](=O)[O-])c1 (centres unmarked)	2.33%
COc1cc(OC)cc(C(=O)Nc2sc3c(c2C#N)CCCC3)c1	-4.75%
CCN1CCC(C#N)(NC(=O)[C@H](C[C@H](C)c2ccccc2)NC(=O)c2ccc(-c3ccccc3Cl)cc2)CC1	-5.2%
CCCOc1ccc(-c2csc3ncn(CC(=O)Nc4ccc(C)cc4)c(=O)c23)cc1	5.39%
CC(C)(C)C(=O)NCCc1nc2ccccc2n1CCOc1ccc(Cl)cc1	1.12%
CCCCCSc1nc2n(n1)C(c1cccs1)/C(=C(\O)OCC)C(C)=N2 (centres unmarked)	0.351%
Cc1ccccc1CN1CCN(Cc2ccccc2)CC1	-1.77%
Oc1nc(-c2cccc(Cl)c2)nc2ccccc12	-8.92%
CCC(=O)CC(Sc1cc(=O)oc2ccccc12)c1ccc([N+](=O)[O-])cc1 (centres unmarked)	-4.35%
O=S(=O)(Cc1ccccc1)N1CCC(c2nnnn2-c2ccc(F)cc2)CC1	5.43%
Cc1nn(-c2ccc(F)cc2)c(O)c1/C=N/c1ccc(S(=O)(=O)N(C)C)cc1	0.851%
COCCN1C(=O)c2[nH]nc(-c3ccccc3O)c2C1c1ccc(OCc2ccccc2)cc1 (centres unmarked)	0.366%
N#Cc1ccc(NC(=O)c2ccccc2)cc1	-2.18%
Cc1cccc(NC(=O)C2C3CCC(O3)C2C(=O)O)c1 (centres unmarked)	2.01%
Nc1nonc1C(=O)NCCNCc1ccc(-c2ccccc2)o1	-1.71%
Cc1cc(NC(=O)CN2C(=O)S/C(=C\c3ccccc3)C2=O)no1	4.54%
Cc1cc(O)nc(Nc2ccccc2)n1	1.91%

SMILES	% Inhibition @ 10 uM
Cc1ccc(S(=O)(=O)N(C)CC(=O)Nc2ccccc2Sc2ccccc2)cc1	0.907%
N#CCNC(=O)C1(NC(=O)c2ccc(-c3ccc(S(=O)(=O)N4CCN(CC(F)(F)F)CC4)cc3)cc2)CCCCC1	3.19%
CCN(CC)CCNc1nc(C)cc(C)n1	-1.69%
CCCN(CCC)C(=O)c1cc(-c2ccc(Cl)cc2)[nH]n1	-5.24%
O=[N+]([O-])c1ccc(CN2c3ccccc3C3=C(CCCC3)C23CCCCC3)cc1	4.12%
CCc1n[nH]c(N)n1	-5.29%
CC1(C)CC(=O)C2=C(C1)c1c(ccc3ccccc13)NC2c1cn(Cc2ccc(Cl)cc2Cl)c2ccccc12 (centres unmarked)	-6.08%
Cc1oc(-c2ccccc2)nc1CS(=O)CC(=O)NC1CCCCCC1 (centres unmarked)	-5.58%
CN1CCN(C(=O)c2cc3c(Cl)nc4ccccc4c3s2)CC1	-3.99%
CCOc1ccc(C(=O)N2CCCc3ccccc32)cc1	-5.92%
CN1CCN(C(=O)CN(c2cc(Cl)ccc2Cl)S(C)(=O)=O)CC1	2.63%
C/C=C/COC(=O)Cn1c(=O)sc2cccc(Cl)c21	-2.58%
O=C(Nc1cc(Cl)ccc1O)c1cccc(N2C(=O)c3ccccc3C2=O)c1	-1.22%
O=C(Cn1ncc2ccccc21)Nc1cc(-c2cccc(F)c2)no1	1.68%
CCc1nc2ccccc2n1CC(O)COc1ccc(C(=O)OC)cc1 (centres unmarked)	-2.07%
O=C(O)CCCCN1C(=O)c2ccccc2C1=O	-2.62%
CC1=C(C(=O)NCc2ccccc2)C(c2ccc(C(F)(F)F)cc2)n2ncnc2N1 (centres unmarked)	5.93%
Cc1cc(C)c(NS(=O)(=O)c2ccc(NC(=O)C(F)(F)F)cc2)c(C)c1	7.16%
COc1ccc(C2SCC(=O)N2C)cc1 (centres unmarked)	3.53%
CCOc1ccc(CCNC(=O)Cn2ncc3c2-c2cc(C)ccc2OC3)cc1OCC	2.38%
COc1ccc(C2C3=C(O)CCCC3=NC(C)=C2C(=O)Nc2ccccc2C)cc1 (centres unmarked)	-0.864%

SMILES	% Inhibition @ 10 uM
CCn1c2ccccc2n2cc(C)nc12	-5.23%
Cc1cccn2c(=O)c(/C=C(\C#N)C(=O)NC3CCCC3)c(Oc3ccccc3Cl)nc12	2%
COc1ccc(NS(=O)(=O)Cc2ccccc2)c(OC)c1	-2.35%
Cc1ccc(NC(=O)CN(CCc2ccccc2)S(C)(=O)=O)cc1C	7.42%
CCc1c(C)nc(SCc2ccccc2)c(C#N)c1C	-2.15%
COc1ccc(C(=O)c2coc3c2cc(O)c2ccccc23)cc1	-3.16%
O=C(Nc1ccc(NC(=O)c2cccs2)cc1)c1cccs1	1.57%
COc1ccc(NC(=O)C2(N(Cc3ccco3)C(=O)Cc3n[nH]c(N)n3)CCCCC2)cc1	-2.74%
O=C(O)Cc1ccc(NC(=O)c2cccnc2C(=O)O)cc1	9.82%
CCOC(=S)/N=C(\NS(=O)(=O)c1ccc(Br)cc1)c1ccccc1	2.92%
COc1cccc(-c2coc3c2c(C)cc2oc(=O)c(CC(=O)O)c(C)c23)c1	17.3%
Cc1ccc(-c2csc(/C(C#N)=C/c3ccc(Br)cc3)n2)c(C)c1	-2%
C=CCNC(=O)c1cc2c(=O)n3cc(C)ccc3nc2n(C2CCCC2)c1=N	5.17%
CCN(CC)CCNC(=O)CC12CC3CC(CC(C3)C1)C2	1.87%
Cc1ccccc1OCC(=O)Nc1cccc(NC(=O)COc2ccccc2C)c1	-4.49%
CCOC(=O)c1nnc(Cc2ccc(OC)c(OC)c2)o1	6.13%
COc1ccc(-c2cc(C(F)F)n3ncc(C(=O)Nc4ccc(F)c(F)c4)c3n2)cc1	-3.24%
COc1ccc(CNc2ncc3c(n2)CC(C)(C)CC3=O)cc1	0.0539%
O=c1oc2c(ccc3ccccc32)c2c1SC(C(F)(F)F)C2 (centres unmarked)	-3.06%
CCc1ccc(CN(Cc2ccco2)C(=O)c2cccc(OC)c2)cc1	-4.67%
